In the supplement of paper PMC4967469:
By IC50 is meant the dose at which the fit gives 50% viability; a fit beyond the top or the lowest dose is shown as a bound at that dose. The AUC spans the tested range (256-fold, ending at the top dose) of the same fit; values near 1 show little effect. For some of these results: Where the top dose is marked as inferred, it is not printed in the source and was worked back from the curve model. For some of these results: Drugs with an entry number were screened twice under separate entries, and the two screens often disagree.

Legend:
Assay in all cases: Viability of human cancer cell lines after 72 h of drug (GDSC screen)
[1] = compound: O=C(/C=C/c1ccc(CN(CCO)CCc2c[nH]c3ccccc23)cc1)NO [LAQ824]; conditions: top dose 1.024 µM; top dose inferred
Method: (§1)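 Human cancer cell lines in 384-well plates, medium with 10% serum, drug for 72 h over a 256-fold dose range (nine 2-fold or five 4-fold steps up to the top dose). Adherent lines were fixed and stained with the nucleic acid dye Syto60, suspension lines read with resazurin; signal relative to control wells, capped at 0 and 100%. One two-parameter sigmoid per drug and line, fitted in a mixed model over all curves with the slope shared within a line.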

[2] = compound: O=S(=O)(O)c1ccc2cc(N=Nc3cc(S(=O)(=O)O)c4cccnc4c3O)ccc2c1 [NSC-87877]; conditions: top dose 16 µM; top dose inferred
Method: as §1

[3] = compound: Cc1ccc(NC(=O)c2ccc(CN3CCN(C)CC3)cc2)cc1Nc1nc(-c2cccnc2)cs1 [Masitinib]; conditions: top dose 20 µM
Method: as §1

[4] = compound: CCCC(=O)OCc1ccc(OC(=O)/C=C(C)/C=C/C=C(C)/C=C/C2=C(C)CCCC2(C)C)cc1 [VNLG/124]; conditions: top dose 5.12 µM; top dose inferred
Method: as §1

[5] = compound: O=C(Nc1ccc(OC(F)(F)F)cc1)c1sccc1NCc1ccnc2ccccc12 [OSI-930]; conditions: top dose 10.24 µM
Method: as §1

[6] = compound: Cc1c(N)nc([C@H](CC(N)=O)NC[C@H](N)C(N)=O)nc1C(=O)N[C@H](C(=O)N[C@H](C)[C@@H](O)[C@H](C)C(=O)N[C@H](C(=O)NCCc1nc(-c2nc(C(=O)NCCC[S+](C)C)cs2)cs1)[C@@H](C)O)[C@@H](OC1OC(CO)C(O)C(O)C1OC1OC(CO)C(O)C(OC(N)=O)C1O)c1cnc[nH]1 [Bleomycin]
Method: as §1

[7] = compound: CC/C(=C(\c1ccccc1)c1ccc(OCCN(C)C)cc1)c1ccccc1 [Tamoxifen]; conditions: top dose 5 µM
Method: as §1

[8] = compound: O=C(Nc1cccc(Nc2ncc(Br)c(NCCc3cnc[nH]3)n2)c1)N1CCCC1 [BX-912]; conditions: top dose 10.24 µM; top dose inferred
Method: as §1

[9] = top dose 50 µM, screen: GDSC drug entry 1378, top dose inferred
[10] = top dose 64 µM, screen: GDSC drug entry 190

Row | Cell Line | AUC [1] | IC50 [1] [µM] | AUC [2] | IC50 [2] [µM] | AUC [3] | IC50 [3] [µM] | AUC [4] | IC50 [4] [µM] | AUC [5] | IC50 [5] [µM] | AUC [6, 9] | IC50 [6, 9] [µM] | AUC [6, 10] | IC50 [6, 10] [µM] | AUC [7] | IC50 [7] [µM] | AUC [8] | IC50 [8] [µM]
1 | SW837 (large intestine, adherent) | 0.302 | 0.0147 | 0.983 | > 16 | 0.972 | > 20 | 0.977 | > 5.12 | 0.969 | > 10.2 | 0.858 | > 50 | 0.401 | 1.96 | 0.968 | > 5 | 0.903 | > 10.2
2 | BHY (head and neck, adherent) | 0.383 | 0.0305 | 0.987 | > 16 | 0.885 | > 20 | 0.982 | > 5.12 | 0.962 | > 10.2 | 0.657 | 8.53 | 0.409 | 2.25 | 0.977 | > 5 | 0.89 | > 10.2
3 | HPAF-II (pancreas, adherent) | 0.54 | 0.0848 | 0.963 | > 16 | 0.93 | > 20 | 0.979 | > 5.12 | 0.937 | > 10.2 | 0.748 | 20.6 | 0.842 | > 64 | 0.819 | 4.05 | 0.98 | > 10.2
4 | LU-99A (large cell lung carcinoma, adherent) | 0.433 | 0.042 | 0.987 | > 16 | 0.974 | > 20 | 0.986 | > 5.12 | 0.963 | > 10.2 | 0.062 | < 0.195 | 0.028 | < 0.25 | 0.986 | > 5 | 0.868 | 9.17
5 | HPAC (pancreas, adherent) | 0.294 | 0.0131 | 0.979 | > 16 | 0.922 | > 20 | 0.965 | > 5.12 | 0.934 | > 10.2 | 0.896 | > 50 | 0.388 | 1.74 | 0.97 | > 5 | 0.809 | 8.24
6 | NCI-H1573 (lung adenocarcinoma, adherent) | 0.773 | 0.387 | 0.986 | > 16 | 0.954 | > 20 | 0.99 | > 5.12 | 0.978 | > 10.2 | 0.983 | > 50 | 0.946 | > 64 | 0.99 | > 5 | 0.979 | > 10.2
7 | KYSE-270 (oesophagus, adherent) | 0.287 | 0.0179 | 0.979 | > 16 | 0.899 | 18.8 | 0.988 | > 5.12 | 0.987 | > 10.2 | 0.5 | 3.12 | 0.253 | 0.894 | 0.975 | > 5 | 0.919 | > 10.2
8 | RD (rhabdomyosarcoma, adherent) | 0.455 | 0.0476 | 0.976 | > 16 | 0.916 | > 20 | 0.972 | > 5.12 | 0.985 | > 10.2 | 0.799 | 26.6 | 0.786 | 30.5 | 0.967 | > 5 | 0.917 | > 10.2
9 | PL18 (pancreas, adherent) | 0.582 | 0.107 | 0.988 | > 16 | 0.928 | > 20 | 0.988 | > 5.12 | 0.962 | > 10.2 | – | – | 0.318 | 1.24 | 0.987 | > 5 | 0.982 | > 10.2
10 | RERF-GC-1B (stomach, adherent) | 0.367 | 0.0263 | 0.985 | > 16 | 0.825 | 13.9 | 0.972 | > 5.12 | 0.961 | > 10.2 | 0.659 | 9.13 | 0.743 | 21.9 | 0.964 | > 5 | 0.781 | 4.75
11 | NCI-H522 (lung adenocarcinoma, adherent) | 0.256 | 0.011 | 0.895 | > 16 | 0.961 | > 20 | 0.984 | > 5.12 | 0.969 | > 10.2 | 0.718 | 14.7 | 0.242 | 0.616 | 0.981 | > 5 | 0.952 | > 10.2
12 | CFPAC-1 (pancreas, adherent) | 0.559 | 0.0953 | 0.982 | > 16 | 0.909 | > 20 | 0.983 | > 5.12 | 0.984 | > 10.2 | 0.509 | 3.32 | 0.245 | 0.651 | 0.973 | > 5 | 0.918 | > 10.2
13 | OSC-19 (head and neck, adherent) | 0.465 | 0.0512 | 0.987 | > 16 | 0.973 | > 20 | 0.986 | > 5.12 | 0.978 | > 10.2 | 0.484 | 2.82 | 0.481 | 3.55 | 0.978 | > 5 | 0.917 | > 10.2
14 | TCCSUP (bladder, adherent) | 0.486 | 0.0582 | 0.982 | > 16 | 0.904 | > 20 | 0.984 | > 5.12 | 0.985 | > 10.2 | 0.669 | 9.93 | 0.693 | 15.1 | 0.982 | > 5 | 0.974 | > 10.2
15 | GCT (soft tissue, adherent) | 0.699 | 0.221 | 0.988 | > 16 | 0.922 | > 20 | 0.988 | > 5.12 | 0.98 | > 10.2 | 0.083 | < 0.195 | 0.538 | 5.03 | 0.988 | > 5 | 0.928 | > 10.2
16 | COR-L105 (lung adenocarcinoma, adherent) | 0.594 | 0.123 | 0.979 | > 16 | 0.879 | > 20 | 0.955 | > 5.12 | 0.877 | > 10.2 | 0.772 | 23.8 | 0.585 | 7.21 | 0.976 | > 5 | 0.865 | > 10.2
17 | SW900 (lung squamous cell carcinoma, adherent) | 0.583 | 0.113 | 0.983 | > 16 | 0.943 | > 20 | 0.982 | > 5.12 | 0.975 | > 10.2 | 0.564 | 4.81 | 0.832 | 50.3 | 0.973 | > 5 | 0.984 | > 10.2
18 | KP-4 (pancreas, adherent) | 0.605 | 0.123 | 0.988 | > 16 | 0.916 | > 20 | 0.988 | > 5.12 | 0.982 | > 10.2 | 0.537 | 3.92 | 0.407 | 2.25 | 0.987 | > 5 | 0.651 | 1.65
19 | JAR (urogenital system, adherent) | 0.572 | 0.1 | 0.985 | > 16 | 0.868 | 17.6 | 0.973 | > 5.12 | 0.983 | > 10.2 | 0.488 | 2.9 | 0.944 | > 64 | 0.903 | > 5 | 0.895 | > 10.2
20 | HTC-C3 (thyroid, adherent) | 0.491 | 0.0603 | 0.984 | > 16 | 0.903 | > 20 | 0.984 | > 5.12 | 0.953 | > 10.2 | 0.718 | 14.1 | 0.811 | 39.3 | 0.966 | > 5 | 0.956 | > 10.2
21 | ChaGo-K-1 (non-small cell lung carcinoma, adherent) | 0.596 | 0.122 | 0.985 | > 16 | 0.958 | > 20 | 0.984 | > 5.12 | 0.983 | > 10.2 | 0.758 | 20 | 0.663 | 12.3 | 0.953 | > 5 | 0.96 | > 10.2
22 | SN12C (kidney, adherent) | 0.675 | 0.21 | 0.981 | > 16 | 0.966 | > 20 | 0.983 | > 5.12 | 0.969 | > 10.2 | 0.663 | 9.4 | 0.831 | 47.8 | 0.977 | > 5 | 0.869 | > 10.2
23 | MZ7-mel (melanoma, adherent) | 0.369 | 0.0274 | 0.963 | > 16 | 0.864 | 18.6 | 0.985 | > 5.12 | 0.967 | > 10.2 | 0.694 | 11.2 | 0.158 | 0.337 | 0.985 | > 5 | 0.951 | > 10.2
24 | KYSE-180 (oesophagus, adherent) | 0.421 | 0.0394 | 0.93 | > 16 | 0.882 | 19.6 | 0.944 | > 5.12 | 0.983 | > 10.2 | 0.444 | 2.21 | 0.437 | 2.72 | 0.954 | > 5 | 0.948 | > 10.2
25 | BPH-1 (prostate, adherent) | 0.349 | 0.0233 | 0.977 | > 16 | 0.712 | 5.33 | 0.982 | > 5.12 | 0.673 | 2.06 | 0.329 | 0.99 | 0.083 | < 0.25 | 0.946 | > 5 | 0.456 | 0.479
26 | A204 (rhabdomyosarcoma, adherent) | 0.349 | 0.0215 | 0.886 | > 16 | 0.452 | 0.89 | 0.951 | > 5.12 | 0.902 | > 10.2 | 0.208 | 0.322 | 0.166 | 0.267 | 0.944 | > 5 | 0.56 | 0.982
27 | RT-112 (bladder, adherent) | 0.233 | 0.01 | 0.981 | > 16 | 0.932 | > 20 | 0.984 | > 5.12 | 0.985 | > 10.2 | 0.552 | 4.39 | 0.308 | 1.11 | 0.983 | > 5 | 0.721 | 2.86
28 | OAW-28 (ovary, adherent) | 0.528 | 0.0781 | 0.983 | > 16 | 0.89 | > 20 | 0.982 | > 5.12 | 0.982 | > 10.2 | 0.709 | 14.4 | 0.629 | 9.97 | 0.977 | > 5 | 0.86 | > 10.2
29 | COLO-792 (melanoma, adherent) | 0.803 | 0.5 | 0.988 | > 16 | 0.799 | 9.4 | 0.987 | > 5.12 | 0.98 | > 10.2 | 0.372 | 1.39 | 0.52 | 4.52 | 0.987 | > 5 | 0.973 | > 10.2
